Inconclusive results and toxic doses are left out. A number of entries come with more than one value. They are shown here; other results are not. The source may hold further records. Values given together repeat one measurement across runs, samples, wells, individuals or studies.
Tested on: CD2F1 mice, AMSA-resistant P388 leukemia ip, median survival T/C
Test: NCI In Vivo Anticancer Drug Screen. Data for tumor model P388 Leukemia resistant to AMSA; NSC 249992 (intraperitoneal) in CD2F1 (CDF1) mice
Conditions: endpoint: median survival time, schedule: Q04DX002 (ip), vehicle: water, higher = longer survival
Description: The antitumor activity of compounds was measured in mice bearing transplantable tumors. Survival or tumor size were measured and the results are expressed as the measurement made in the treated group (T) divided by the measurement made in the vehicle treated control group (C). The tumor model used in this assay is P388 Leukemia resistant to AMSA; NSC 249992 (intraperitoneal) in CD2F1 (CDF1) mice

O=C1c2c(O)ccc(O)c2C(=O)c2c(NCCNCCO)ccc(NCCNCCO)c21
T/C (dose: 2.16 mg/kg/injection): 118 % of control and 156 % of control | T/C (dose: 3.6 mg/kg/injection): 111 % of control and 155 % of control

From PubChem BioAssay AID324 (DTP/NCI, 2004)
